Source: PubChem BioAssay AID686970 (National Center for Advancing Translational Sciences (NCATS), 2013)
About 6,000 (1.7%) of roughly 360,000 compounds were called active. The inconclusive results got no clear call from the source; some entries with a clear call stand among them for comparison. Calls come from the whole dose curve; as a rule, active = well fitted cell-killing curve with a large enough effect; inconclusive = small, poorly fitted or top-dose-only effect, or effect the other way; inactive = flat fitted curve, though single readings scatter. Potencies of inconclusive entries are left out as doubtful fits.

experiment: qHTS for induction of synthetic lethality in tumor cells producing 2HG: qHTS for the HT-1080-NT fibrosarcoma cell line; conditions: HT-1080-NT fibrosarcoma viability, CellTiter-Glo ATP luminescence, 48 h; activity, negative = less viability: at 46.1 µM (top of the series) unless noted;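 note: NT is the 2HG producing partner of a matched IDH1 knockdown line; nearly all actives have a fitted effect of over 55% in size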;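 for activity, negative = less viability: 0% = DMSO-treated cells and -100% = media-only wells without cells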
How it was run: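 A 48-hour cytotoxicity screen used HT-1080-NT cells plated 2 hours before compound delivery. ATP-based CellTiter-Glo luminescence measured viability, normalized to DMSO and no-cell controls.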
Potency is the fitted concentration of half-maximal effect; tags give direction and shape of the fitted curve.

Row | Structure (SMILES) | activity, negative = less viability | Potency
1 | Clc1ccc(Oc2ncnc3oc(-c4ccccc4)cc23)cc1 | inactive: 8.07% | –
2 | CCN(CC(=O)Nc1ccc(NC(C)=O)cc1)C(=O)c1ccccc1CCc1ccccc1 | inactive: -6.69% | –
3 | CCOC(=O)c1[nH]c(C)c(C(=O)OCC(=O)NC(C)c2ccc(F)cc2)c1C (stereo unspecified) | – | active: 3.66 µM
4 | Cc1c(-c2ccc(/C=N/NC(=O)C(=O)Nc3ccccc3F)o2)cccc1[N+](=O)[O-] | inactive: 10.7% | –
5 | CN(Cc1ccccc1)Cc1nc2c(c(=O)n(C)c(=O)n2C)n1Cc1ccc(F)cc1 | inactive: 0.355% | –
6 | Cc1ccc2nc(-c3ccncc3)cc(C(=O)Nc3ccc4c(c3)OCCO4)c2c1 | – | inconclusive [cytotoxic, single point]
7 | COc1ccc(N2C(c3ccsc3)=Cc3cc4c(cc3C2c2c[nH]c3ccccc23)OCO4)cc1 (stereo unspecified) | – | active: 20.6 µM
8 | CC(C(=O)NCc1ccccc1Cl)N1C(=O)c2ccccc2C1=O (stereo unspecified) | inactive: 12.6% | –
9 | COc1ccc(N2CCN(C(=O)[C@H](Cc3c[nH]c4ccccc34)NC(C)=O)CC2)cc1 | inactive: 18.1% | –
10 | COC(=O)N1C(=O)[C@@](c2ccccc2)(C2CCCC2)N1C(=O)OC | – | inconclusive [cytotoxic, partial curve]
11 | O=C(CSCc1ccc(Cl)cc1Cl)Nc1ccccc1C(=O)Nc1ccc(C(=O)O)cc1 | – | inconclusive [cytotoxic, single point]
12 | O=C(Nc1cc(C(F)(F)F)ccc1Cl)c1ccc(NC(=O)C(F)(F)F)cc1 | – | inconclusive [cytotoxic, single point]
13 | CCOc1ccc(S(=O)(=O)NC(Cc2cnc[nH]2)C(=O)O)cc1 (stereo unspecified) | inactive: 17.1% | –
14 | CCc1cccc2c(C(=O)C(NCCCOC)c3ccccc3)c[nH]c12 (stereo unspecified) | – | active: 16.4 µM
15 | CCN(Cc1ccccc1)C(c1ccc(Cl)cc1)c1nnnn1C(C)(C)C (stereo unspecified) | inactive: -3.09% | –
16 | O=C(c1ccco1)N1CCN(c2ncnc3scc(-c4cccs4)c23)CC1 | – | active: 11.2 µM
17 | O=c1[nH]c(CN2CCN(C/C=C/c3ccccc3)CC2)nc2cc(Cl)ccc12 | – | inconclusive [cytotoxic, single point]
18 | Brc1ccc2nc(-c3ccco3)c(Cc3ccsc3)n2c1 | – | inconclusive [cytotoxic, single point]

Row | Structure (SMILES) | activity, negative = less viability | Potency
19 | CCCCCC(=O)N1C[C@H](O)[C@@H](n2cc(-c3ccc(F)cc3)nn2)C[C@@H]1c1ccc(Cl)cc1 | – | inconclusive [cytotoxic, partial curve]
20 | COc1ccc(CCNC(=O)COc2ccc(S(=O)(=O)NC3CCCCC3)cc2Cl)cc1 | – | inconclusive [cytotoxic, single point]
21 | CC[C@]12c3[nH]c4ccc(OC)cc4c3CCN1C(=O)C(CC(=O)NCc1cccc(C(F)(F)F)c1)C[C@@H]2C(=O)N1CCN(C(=O)c2ccco2)CC1 (stereo partly specified) | inactive: 1.19% | –
22 | C/C(=N\NC(=O)CC(C)C)c1c(C(F)(F)F)[nH]n(-c2nc3ccccc3s2)c1=O | – | inconclusive [cytotoxic, partial curve]
23 | CC(C)N1CCc2c(sc(NC(=O)c3nc4ccccc4s3)c2C(N)=O)C1 | – | inconclusive [cytotoxic, partial curve]
24 | Cc1ccc(-c2nn(-c3ccccc3)c3[nH]c(=O)c(CNCc4ccccc4)cc23)cc1 | – | inconclusive [cytotoxic, single point]
25 | Cc1nn2c3ccccc3nc2c2ccccc12 | – | inconclusive [cytotoxic, partial curve]
26 | COc1ccc(C2CC23N=C(c2ccccc2)OC3=O)cc1 (stereo unspecified) | inactive: -0.995% | –
27 | NC(=S)N/N=C/c1ccc(C(F)(F)F)cc1 | – | inconclusive [cytotoxic, single point]
28 | FC(F)(F)c1nc2ccccc2n2c(-c3ccc(Cl)cc3)nnc12 | – | active: 5.8 µM
29 | CC1CC(C)CN(S(=O)(=O)c2ccc(C(=O)NCCCn3ccnc3)cc2)C1 (stereo unspecified) | – | inconclusive [cytotoxic, single point]
30 | C=CCNc1ncnc2c1ncn2[C@H]1CN(Cc2cccs2)C[C@@H](CO)O1 | – | inconclusive [rising, single point]
31 | O=c1cc(Nc2ccc3c(c2)OCO3)[nH]c(=O)n1-c1ccc(Br)cc1 | – | inconclusive [cytotoxic, single point]
32 | Cc1cc(NC(=O)C2CCCC2)n(-c2nc3ccccc3[nH]2)n1 | – | active: 7.94 µM
33 | CCOc1cc(/C=N/NS(=O)(=O)c2ccccc2)ccc1OS(=O)(=O)c1ccc(C)cc1 | inactive: -6.77% | –
34 | CN1/C(=C\C(=O)COC(=O)c2ccc(O)c(O)c2)C(C)(C)c2ccccc21 | inactive: -0.136% | –
35 | CCN(CC)C(=O)Oc1ccc(Cl)c2cccnc12 | inactive: 0.99% | –
36 | NS(=O)(=O)c1ccc(CCNCc2ccccc2OCc2ccc(Cl)cc2)cc1 | – | active: 23.1 µM
